Reference: PubChem BioAssay (NCI)
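Exposure lasted 48 hours, with cells grown in 96-well plates and compounds tested at five concentrations. At the GI50, growth is halved.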 The source holds more than one record for some entries. This is not the full list of results. The source may hold further records. Records of one sample usually come from different ranges of test concentrations, not given here; a value can be the end of its range.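 TGI is the concentration that stops growth completely.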

Legend:
Test in all cases: DTP human tumour cell line panel, 48 h
MOLT-4 leukemia = tested on: MOLT-4 leukemia
RPMI-8226 leukemia = tested on: RPMI-8226 leukemia
COLO 205 colon = tested on: COLO 205 colon
LOX IMVI melanoma = tested on: LOX IMVI melanoma
NCI-H226 lung = tested on: NCI-H226 lung
HCC-2998 colon = tested on: HCC-2998 colon
HL-60(TB) leukemia = tested on: HL-60(TB) leukemia
MALME-3M melanoma = tested on: MALME-3M melanoma
OVCAR-5 ovarian = tested on: OVCAR-5 ovarian
UACC-62 melanoma = tested on: UACC-62 melanoma
RXF 393 renal = tested on: RXF 393 renal
SNB-19 CNS = tested on: SNB-19 CNS
HS 578T breast = tested on: HS 578T breast
HT29 colon = tested on: HT29 colon
TK-10 renal = tested on: TK-10 renal
NCI-H522 lung = tested on: NCI-H522 lung
EKVX NSCLC = tested on: EKVX NSCLC

Structure (SMILES) | TGI (MOLT-4 leukemia) | TGI (RPMI-8226 leukemia) | TGI (COLO 205 colon) | GI50 (LOX IMVI melanoma) | TGI (NCI-H226 lung) | TGI (HCC-2998 colon) | TGI (HL-60(TB) leukemia) | GI50 (MALME-3M melanoma) | TGI (OVCAR-5 ovarian) | TGI (UACC-62 melanoma) | TGI (RXF 393 renal) | TGI (SNB-19 CNS) | TGI (HS 578T breast) | TGI (HT29 colon) | TGI (TK-10 renal) | TGI (NCI-H522 lung) | TGI (EKVX NSCLC)
S=C(N/N=C(/c1ccccc1)c1ccccn1)N1CCCCC1 | < 1 nM and 5.63 µM | 8.27 nM and 2.21 µM | 5.28 nM and 5.11 µM | 3.43 nM and 46 nM | 141 nM and 2.17 µM |  |  |  |  |  |  |  |  |  |  |  | 
CC(=O)O[C@@]12CO[C@@H]1C[C@H](O)[C@@]1(C)C(=O)[C@H](O)C3=C(C)[C@@H](OC(=O)[C@H](O)[C@@H](NC(=O)OC(C)(C)C)c4ccccc4)C[C@@](O)([C@@H](OC(=O)c4ccccc4)[C@H]21)C3(C)C |  |  |  |  |  | 789 nM and 26.2 nM | 51.8 nM, 26.6 nM, 1.15 µM | 35.8 nM and 666 nM | 102 nM and 31.2 µM | 906 nM and > 52 µM | 95.6 nM and 3.3 µM | 10.2 nM and > 100 µM | 13.3 nM and 72.4 µM | 14.9 nM and 1.23 µM | 600 nM and > 74.6 µM | 57.5 nM and 1.93 nM | 458 nM and > 100 µM
